{"source": "PubChem BioAssay AID686971", "about": "(National Center for Advancing Translational Sciences (NCATS), 2013)", "note": "Hit rate of the full screen: of about 360,000 compounds, about 7,500 (2.1%) were called active. Inconclusive means that the source gave no clear call. Such entries were picked first, then a sample of the others. The call rests on the fitted dose curve; in most records, active means well fitted cell-killing curve with a large enough effect; inconclusive means small, poorly fitted or top-dose-only effect, or effect the other way, or another doubt; inactive means no such curve, though single readings can be large or run the other way. Potencies of inconclusive entries are left out as doubtful fits. Potency means the concentration at half of the fitted maximal effect; tags describe the fitted curve by direction and shape."}
{"assay": "qHTS for induction of synthetic lethality in tumor cells producing 2HG: qHTS for the HT-1080-IDH1KD cell line;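 on activity, negative = toxicity: 0% = DMSO wells and -100% = cell-free medium wells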", "conditions": "HT-1080 IDH1 knockdown viability, ATP luminescence, 48 h; activity, negative = toxicity: at 46.1 µM (top of the series) unless noted", "outline": "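Luminescent ATP read-out (CellTiter-Glo, 10 min at room temperature) after 48 h compound exposure at 37 °C gave viability of IDH1-knockdown HT-1080 cells. Activity was normalised to DMSO and cell-free wells, then fitted as concentration-response curves.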"}
{"smiles": "COc1ccc(CNC(=O)CN2c3ccccc3S(=O)(=O)c3ccccc32)cc1", "activity, negative = toxicity": "inactive: -2.78%"}
{"smiles": "CCN1CCN(c2ncnc3scc(-c4ccc(C)cc4)c23)CC1", "activity, negative = toxicity": "inactive: -4.09%"}
{"smiles": "O=C1c2oc3ccccc3c(=O)c2C(c2cccs2)N1CCCN1CCOCC1", "note": "(stereo unspecified)", "activity, negative = toxicity": "inactive: 10.7%"}
{"smiles": "CC1(C(=O)NCc2ccccc2)Cc2c(-c3ccccc3)ccnc2O1", "note": "(stereo unspecified)", "Potency": "inconclusive [cytotoxic, full curve]"}
{"smiles": "COc1ccccc1Nc1nc2c(s1)CCC2", "activity, negative = toxicity": "inactive: 1.67%"}
{"smiles": "Cc1cccc(C(O)c2ncc(-c3ccc(Cl)cc3)[nH]2)c1C", "note": "(stereo unspecified)", "Potency": "inconclusive [cytotoxic, single point]"}
{"smiles": "COc1ccc(CCNCC(O)COc2cccc(Br)c2)cc1", "note": "(stereo unspecified)", "Potency": "inconclusive [cytotoxic, single point]"}
{"smiles": "CN(C)CC/C=C1/c2ccccc2Sc2ccc(Cl)cc21", "Potency": "inconclusive [cytotoxic, single point]"}
{"smiles": "COc1ccc(C(=O)N/N=C/c2ccc(N(C)c3ccccc3)cc2)cc1", "activity, negative = toxicity": "inactive: -12.8%"}
{"smiles": "Cc1ccc(-c2nc(CS(=O)CC(=O)NCCCN3CCN(Cc4ccccc4)CC3)c(C)o2)cc1", "note": "(stereo unspecified)", "Potency": "inconclusive [cytotoxic, single point]"}
{"smiles": "O=C(N/N=C/C=C\\c1ccccc1[N+](=O)[O-])c1cc(-c2ccc3ccccc3c2)n[nH]1", "Potency": "active: 14.6 µM"}
{"smiles": "COc1ccccc1CC(=O)Nc1nc(-c2ccc(F)c(F)c2)cs1", "activity, negative = toxicity": "inactive: -12.4%"}
{"smiles": "CCn1c(=O)cc(SCC(=O)NCc2ccc(C)cc2)c2ccccc21", "Potency": "inconclusive [cytotoxic, single point]"}
{"smiles": "O=C1NC[C@H](CCCCN2C[C@H](Cc3ccc(O)cc3)N(CCc3ccccc3)C(=O)C2=O)N(CC2CCCCC2)C1=O", "Potency": "active: 14.6 µM"}
{"smiles": "O=C(C=Cc1ccccc1O)c1ccccc1O", "Potency": "active: 18.4 µM"}
{"smiles": "O=C(Nc1cccc2ccccc12)N1CC=C(c2ccccc2)CC1", "Potency": "inconclusive [cytotoxic, single point]"}
{"smiles": "O=C1C(NS(=O)(=O)c2ccc(Cl)cc2)=C(N2CCCCC2)C(=O)c2ccccc21", "Potency": "inconclusive [cytotoxic, partial curve]"}
{"smiles": "N/C(=N\\OC(=O)c1cccc(Cn2cc(C(F)(F)F)ccc2=O)c1)c1ccc(Cl)cc1", "Potency": "inconclusive [cytotoxic, single point]"}
{"smiles": "CC(C)NC(=S)N/N=C/c1ccc(C(C)(C)C)cc1", "Potency": "inconclusive [cytotoxic, single point]"}
{"smiles": "CCOc1ccc2ccccc2c1C(=O)Nc1cc(=O)n(C)c(=O)n1C", "activity, negative = toxicity": "inactive: 7.24%"}
{"smiles": "O=C(Nc1ccccc1)Nc1cc(OCC(F)(F)F)cc(OCC(F)(F)F)c1", "Potency": "active: 7.31 µM"}
{"smiles": "O=Nc1[nH]c(=O)c(/C=C(\\O)c2ccccc2)nc1NO", "Potency": "inconclusive [cytotoxic, single point]"}
{"smiles": "O=C(COc1ccc(S(=O)(=O)NC2CCCCC2)cc1Cl)Nc1ccc2c(c1)OCO2", "Potency": "inconclusive [cytotoxic, single point]"}
{"smiles": "CC(=O)N1CCN(c2ccccc2NC(=O)c2ccc(-c3cccc([N+](=O)[O-])c3)o2)CC1", "activity, negative = toxicity": "inactive: -8.02%"}
{"smiles": "O=S(=O)(Cc1cc(Cl)nc(-c2cccnc2)n1)c1ccccc1", "Potency": "inconclusive [cytotoxic, single point]"}
{"smiles": "CCc1nnc(NC(=O)c2ccc(-c3ccccc3F)o2)s1", "activity, negative = toxicity": "inconclusive: 30.4%"}
{"smiles": "O=C(N/N=C/c1ccc(O)cc1O)c1ccc(CN2C(=O)c3cccc4cccc2c34)cc1", "Potency": "inconclusive [cytotoxic, partial curve]"}
{"smiles": "Oc1c(C(Nc2ccccn2)c2cccnc2)cc(Cl)c2cccnc12", "note": "(stereo unspecified)", "Potency": "inconclusive [cytotoxic, single point]"}
{"smiles": "CC1CCCC(NC(=O)CSc2nnc(-c3cccnc3)n2N)C1C", "note": "(stereo unspecified)", "activity, negative = toxicity": "inactive: -0.0395%"}
{"smiles": "CC(CCc1ccccc1)NC(=O)c1ccc(NC(=O)c2ccc(Cl)cc2Cl)cc1", "note": "(stereo unspecified)", "Potency": "inconclusive [cytotoxic, full curve]"}
{"smiles": "COc1cc(NC(=S)NCCC(c2ccccc2)c2ccccc2)cc(OC)c1", "Potency": "inconclusive [cytotoxic, partial curve]"}
{"smiles": "Cc1cccc(C2c3[nH]c4ccccc4c3CCN2C(=O)c2cc(-c3cccn3C)n[nH]2)n1", "note": "(stereo unspecified)", "Potency": "inconclusive [cytotoxic, partial curve]"}
{"smiles": "CC1CCCN(CCC(=O)Nc2ccc(Br)cc2)C1", "note": "(stereo unspecified)", "Potency": "inconclusive [rising, full curve, poor fit]"}
{"smiles": "O=C(CCn1nnc2ccccc21)OCC(=O)c1ccc(F)cc1", "Potency": "inconclusive [rising, single point]"}
{"smiles": "CC(=O)Nc1cccc(-c2ccnc3c2CC(C(=O)NCc2ccc(F)c(F)c2)O3)c1", "note": "(stereo unspecified)", "Potency": "inconclusive [cytotoxic, partial curve]"}
{"smiles": "CC1(C)Cc2cccc(OC(=O)NCCc3ccc(F)cc3)c2O1", "activity, negative = toxicity": "inactive: 12%"}
{"smiles": "COCCn1c(=S)[nH]c2cc(C(=O)NC3CCCCCC3)ccc2c1=O", "activity, negative = toxicity": "inactive: 8.28%"}
{"smiles": "C/C(=N\\NC(=O)c1ccc([N+](=O)[O-])cc1)c1cc2ccccc2oc1=O", "Potency": "inconclusive [cytotoxic, single point]"}
{"smiles": "CCOC(=O)CC(=O)CSc1[nH]c(=O)cc(C)c1C#N", "Potency": "inconclusive [cytotoxic, single point]"}
{"smiles": "CC1CCCCN1S(=O)(=O)c1ccc(C(=O)N(CCCN(C)C)c2nc3ccc(Br)cc3s2)cc1", "note": "(stereo unspecified)", "Potency": "inconclusive [cytotoxic, single point]"}
{"smiles": "CS(=O)(=O)N(Cc1ccc(Cl)cc1)c1ccc(C(=O)NCCSc2ccccn2)cc1", "Potency": "inconclusive [cytotoxic, single point]"}
{"smiles": "O=C(OCC(=O)N1CCc2ccccc21)c1n[nH]c(=O)c2ccccc12", "activity, negative = toxicity": "inactive: -1.87%"}
{"smiles": "Nc1c(C(=O)Nc2ccccc2)sc2nc(-c3ccco3)ccc12", "Potency": "inconclusive [cytotoxic, partial curve]"}
{"smiles": "Fc1ccc(NC(=S)Nc2ccccc2OC(F)F)cc1Cl", "Potency": "inconclusive [cytotoxic, single point]"}
{"smiles": "CSc1nnc(-c2sccc2OCc2ccc(C)cc2)n1C", "Potency": "inconclusive [cytotoxic, single point]"}
{"smiles": "COc1cccc(/C=N/NC(=O)c2cc(-c3ccccn3)nc3ccccc23)c1O", "Potency": "inconclusive [cytotoxic, full curve]"}
{"smiles": "COc1ccc(C(=O)NNC(=S)NC(=O)c2cc(-c3ccccc3)nc3ccccc23)cc1", "Potency": "inconclusive [cytotoxic, partial curve]"}
{"smiles": "COc1cc(C(=O)NNC(=O)c2ccc3ccccc3n2)cc(OC)c1OC", "Potency": "inconclusive [cytotoxic, partial curve]"}
{"smiles": "N#Cc1c(-c2ccco2)cc(C2CC2)nc1SCC(=O)c1ccccc1", "activity, negative = toxicity": "inconclusive: 2.9%"}
{"smiles": "CC(=O)O/N=C1\\C(=O)N(Cc2ccc(C)cc2)c2ccccc21", "Potency": "inconclusive [cytotoxic, partial curve]"}
{"smiles": "CC(C)C(c1nnnn1C1CCCCC1)N1CCc2ccccc21", "note": "(stereo unspecified)", "activity, negative = toxicity": "inactive: -21.5%"}
{"smiles": "COc1ccc(NC(=O)CSC(C)c2nc3ccccc3c(=O)[nH]2)cc1", "note": "(stereo unspecified)", "activity, negative = toxicity": "inactive: 2.19%"}
{"smiles": "CC(=O)[C@H]1CC[C@H]2[C@@H]3CCC4=CC(=O)CC[C@]4(C)[C@H]3CC[C@]12C", "Potency": "inconclusive [cytotoxic, single point]"}
{"smiles": "CCCc1c(-c2ccc(F)cc2F)ncn1Cc1cccc(-c2ccccc2)c1", "Potency": "inconclusive [cytotoxic, single point]"}
{"smiles": "O=C(c1ccc2c(=O)n(Cc3ccco3)c(=S)[nH]c2c1)N1CCN(Cc2ccccc2)CC1", "Potency": "inconclusive [cytotoxic, single point]"}
{"smiles": "COCCN1C[C@@H](CO)O[C@@H](n2cnc3c(N4CCN(c5ccccc5)CC4)ncnc32)C1", "Potency": "inconclusive [rising, partial curve]"}
{"smiles": "O=C(Nc1ccc(NC(=O)c2ccccc2Cl)nc1)c1ccco1", "activity, negative = toxicity": "inactive: -15.8%"}
{"smiles": "O=C(N/C(=C/C=C/c1ccccc1)C(=O)N1CCOCC1)c1ccccc1Br", "activity, negative = toxicity": "inactive: -5.81%"}
{"smiles": "COc1ccc(NC(=O)CSCC(=O)N2CCCc3ccccc32)cc1", "Potency": "inconclusive [cytotoxic, partial curve]"}
{"smiles": "CCCCNC(=O)C1(C)CCCCN1Cc1ccccc1-c1ccccc1", "note": "(stereo unspecified)", "Potency": "inconclusive [cytotoxic, single point]"}
{"smiles": "Fc1ccc(N=c2ssnc2Cl)c(F)c1", "Potency": "inconclusive [cytotoxic, single point]"}
{"smiles": "CC(C)(C)c1ccc(C(=O)NC(=S)N2CCCC2)cc1", "activity, negative = toxicity": "inactive: -14.1%"}
{"smiles": "O=CC1=C(c2ccccc2)Oc2ccccc2O1", "Potency": "active: 16.4 µM"}
{"smiles": "COc1cccc(NC(=O)NC2CCN(Cc3nnnn3Cc3ccc(F)cc3)CC2)c1", "Potency": "inconclusive [cytotoxic, single point]"}
{"smiles": "O=C(Nc1cccnc1)c1ccc(Br)s1", "Potency": "active: 10 µM"}
{"smiles": "COc1ccc(/C=C/C(=O)OCC(=O)NC2CCCC(C)C2C)cc1", "note": "(stereo unspecified)", "Potency": "inconclusive [cytotoxic, full curve]"}
{"smiles": "Cc1ccc(/C=N/NC(=O)c2ccoc2C)s1", "Potency": "inconclusive [cytotoxic, single point]"}
{"smiles": "COCCN=c1scc(-c2ccccc2)n1/N=C/c1c[nH]c2ccccc12", "Potency": "inconclusive [cytotoxic, single point]"}
{"smiles": "COc1ccccc1C1=Nc2cccc3cccc(c23)N1", "Potency": "inconclusive [cytotoxic, single point]"}
{"smiles": "Cc1nnsc1Sc1ccccc1", "Potency": "inconclusive [rising, single point]"}
{"smiles": "Cc1cccc(C(=O)Nc2sc(C)c(-c3ccccc3)c2C#N)c1", "Potency": "inconclusive [cytotoxic, single point]"}
